Measured values taken from the supplement of paper PMC4604168 (melanoma cell lines).
The other results are listed elsewhere or left out. Repeats are few or missing, and single values can be far off.

How the values were obtained:
Assay in all cases: cell count relative to DMSO control; melanoma cells; higher = more viable cells
Settings in all cases: library dose: low library concentration; 72 h
COLO792 = system: COLO792
COLO800 = system: COLO800
COLO829 = system: COLO829
G361 = system: G361
IPC-298 = system: IPC-298
IST-MEL1 = system: IST-MEL1
LB2518-MEL = system: LB2518-MEL
LOXIMVI = system: LOXIMVI
MEL-HO = system: MEL-HO
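Also: cell number obtained by counting DAPI-stained nuclei in high-throughput microscope images with image analysis software, screen run in 1,536-well plates.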

C=CCNC1=C2C[C@@H](C)C[C@H](OC)[C@H](O)[C@@H](C)/C=C(\C)[C@H](OC(N)=O)[C@@H](OC)/C=C\C=C(/C)C(=O)NC(=CC1=O)C2=O [Tanespimycin] + COc1cc(N2CCC(N3CCN(C)CC3)CC2)ccc1Nc1ncc(Cl)c(Nc2ccccc2S(=O)(=O)C(C)C)n1 [NVP-TAE684] (first compound 0.002 µM, partner dose 0.08 µM)
cell count (COLO792): 93.6%
cell count (COLO800): 96.5%
cell count (COLO829): 97.8%
cell count (G361): 91.8%
cell count (IPC-298): 103%
cell count (IST-MEL1): 94.4%
cell count (LB2518-MEL): 105%
cell count (LOXIMVI): 100%
cell count (MEL-HO): 82.7%

CNC(=O)c1cc(Oc2ccc(NC(=O)Nc3ccc(Cl)c(C(F)(F)F)c3)cc2)ccn1 [sorafenib] + CO[C@@H]1[C@H](N(C)C(=O)c2ccccc2)C[C@H]2O[C@]1(C)n1c3ccccc3c3c4c(c5c6ccccc6n2c5c31)C(=O)NC4 [Midostaurin] (first compound 0.4 µM, partner dose 0.08 µM)
cell count (COLO792): 109%
cell count (COLO800): 82%
cell count (COLO829): 102%
cell count (G361): 79.5%
cell count (IPC-298): 88.6%
cell count (IST-MEL1): 93.1%
cell count (LB2518-MEL): 95.9%
cell count (LOXIMVI): 403%
cell count (MEL-HO): 75.2%

CN1CCN(c2ccc3nc(-c4c(N)c5c(F)cccc5[nH]c4=O)[nH]c3c2)CC1 [Dovitinib] + COc1ccc(COc2ccc(Cc3cnc(N)nc3N)cc2OC)cc1 [GW2580] (first compound 0.1 µM, partner dose 1 µM)
cell count (COLO792): 79.4%
cell count (COLO800): 87.8%
cell count (COLO829): 93%
cell count (G361): 80.5%
cell count (IPC-298): 99.3%
cell count (IST-MEL1): 96.6%
cell count (LB2518-MEL): 90.8%
cell count (LOXIMVI): 93.6%
cell count (MEL-HO): 97.1%

C=CCNC1=C2C[C@@H](C)C[C@H](OC)[C@H](O)[C@@H](C)/C=C(\C)[C@H](OC(N)=O)[C@@H](OC)/C=C\C=C(/C)C(=O)NC(=CC1=O)C2=O [Tanespimycin] + COc1cc2c(Oc3ccc4[nH]c(C)cc4c3F)ncnc2cc1OCCCN1CCCC1 [cediranib] (first compound 0.002 µM, partner dose 0.4 µM)
cell count (COLO792): 89.4%
cell count (COLO800): 145%
cell count (COLO829): 97.9%
cell count (G361): 108%
cell count (IPC-298): 100%
cell count (IST-MEL1): 102%
cell count (LB2518-MEL): 81.2%
cell count (LOXIMVI): 172%
cell count (MEL-HO): 97%

C=CCNC1=C2C[C@@H](C)C[C@H](OC)[C@H](O)[C@@H](C)/C=C(\C)[C@H](OC(N)=O)[C@@H](OC)/C=C\C=C(/C)C(=O)NC(=CC1=O)C2=O [Tanespimycin] + CN(C)S(=O)(=O)c1ccc2c(c1)/C(=C/c1cc3c([nH]1)CCCC3)C(=O)N2 [SU6656] (first compound 0.002 µM, partner dose 0.4 µM)
cell count (COLO792): 92.6%
cell count (COLO800): 73.7%
cell count (COLO829): 92.3%
cell count (G361): 81.5%
cell count (IPC-298): 98.3%
cell count (IST-MEL1): 98.7%
cell count (LB2518-MEL): 94.5%
cell count (LOXIMVI): 112%
cell count (MEL-HO): 96.6%

CNC(=O)c1cc(Oc2ccc(NC(=O)Nc3ccc(Cl)c(C(F)(F)F)c3)cc2)ccn1 [sorafenib] + Cc1ccc(NC(=O)c2cccc(N(C)C)c2)cc1NC(=O)c1ccc(O)cc1 [ZM336372] (first compound 0.4 µM, partner dose 2 µM)
cell count (COLO792): 133%
cell count (COLO800): 181%
cell count (COLO829): 108%
cell count (G361): 104%
cell count (IPC-298): 99.4%
cell count (IST-MEL1): 95.2%
cell count (LB2518-MEL): 105%
cell count (LOXIMVI): 92.9%
cell count (MEL-HO): 100%

C[C@@H](Oc1cc(-c2cnn(C3CCNCC3)c2)cnc1N)c1c(Cl)ccc(F)c1Cl [Crizotinib] + Cn1cc(/C=C2\C(=O)Nc3cccnc32)c2ccccc21 [GW441756] (first compound 0.2 µM, partner dose 0.4 µM)
cell count (COLO792): 98.1%
cell count (COLO800): 152%
cell count (COLO829): 95.2%
cell count (G361): 95%
cell count (IPC-298): 112%
cell count (IST-MEL1): 101%
cell count (LB2518-MEL): 108%
cell count (LOXIMVI): 132%
cell count (MEL-HO): 93.7%

C[C@@H](Oc1cc(-c2cnn(C3CCNCC3)c2)cnc1N)c1c(Cl)ccc(F)c1Cl [Crizotinib] + Oc1cc(-c2nc(-c3ccccc3)[nH]c2-c2ccncc2)ccc1Cl [L779450] (first compound 0.2 µM, partner dose 0.2 µM)
cell count (COLO792): 91.7%
cell count (COLO800): 85.7%
cell count (COLO829): 113%
cell count (G361): 95.1%
cell count (IPC-298): 75.5%
cell count (IST-MEL1): 99.7%
cell count (LB2518-MEL): 87.8%
cell count (LOXIMVI): 92.9%
cell count (MEL-HO): 85.1%

CS(=O)(=O)CCNCc1ccc(-c2ccc3ncnc(Nc4ccc(OCc5cccc(F)c5)c(Cl)c4)c3c2)o1 [lapatinib] + CC(C)(C)c1cnc(CSc2cnc(NC(=O)C3CCNCC3)s2)o1 [SNS-032] (first compound 0.8 µM, partner dose 0.01 µM)
cell count (COLO792): 86.9%
cell count (COLO800): 77.7%
cell count (COLO829): 99.2%
cell count (G361): 104%
cell count (IPC-298): 106%
cell count (IST-MEL1): 100%
cell count (LB2518-MEL): 103%
cell count (LOXIMVI): 107%
cell count (MEL-HO): 97.4%

C[C@@H](Oc1cc(-c2cnn(C3CCNCC3)c2)cnc1N)c1c(Cl)ccc(F)c1Cl [Crizotinib] + CC1(C)NC(=O)N(c2ccc([N+](=O)[O-])c(C(F)(F)F)c2)C1=O [nilutamide] (first compound 0.2 µM, partner dose 1 µM)
cell count (COLO792): 101%
cell count (COLO800): 117%
cell count (COLO829): 93.4%
cell count (G361): 103%
cell count (IPC-298): 93.1%
cell count (IST-MEL1): 90.4%
cell count (LB2518-MEL): 81.8%
cell count (LOXIMVI): 165%
cell count (MEL-HO): 91.8%

C[C@@H](Oc1cc(-c2cnn(C3CCNCC3)c2)cnc1N)c1c(Cl)ccc(F)c1Cl [Crizotinib] + CC(C)CCN1c2nc(Nc3cc(F)c(O)c(F)c3)ncc2N(C)C(=O)C1C [BID1870] (first compound 0.2 µM, partner dose 0.2 µM)
cell count (COLO792): 91.5%
cell count (COLO800): 121%
cell count (COLO829): 98%
cell count (G361): 99.4%
cell count (IPC-298): 101%
cell count (IST-MEL1): 94.8%
cell count (LB2518-MEL): 111%
cell count (LOXIMVI): 95.8%
cell count (MEL-HO): 106%

CNC(=O)c1cc(Oc2ccc(NC(=O)Nc3ccc(Cl)c(C(F)(F)F)c3)cc2)ccn1 [sorafenib] + NC(=O)Nc1cc(-c2cccc(F)c2)sc1C(=O)N[C@H]1CCCNC1 [AZD7762] (first compound 0.4 µM, partner dose 0.02 µM)
cell count (COLO792): 102%
cell count (COLO800): 106%
cell count (COLO829): 79.9%
cell count (G361): 96.5%
cell count (IPC-298): 94.4%
cell count (IST-MEL1): 108%
cell count (LB2518-MEL): 125%
cell count (LOXIMVI): 95.8%
cell count (MEL-HO): 104%

CNC(=O)c1cc(Oc2ccc(NC(=O)Nc3ccc(Cl)c(C(F)(F)F)c3)cc2)ccn1 [sorafenib] + Cn1cncc1[C@@](N)(c1ccc(Cl)cc1)c1ccc2c(c1)c(-c1cccc(Cl)c1)cc(=O)n2C [tipifarnib] (first compound 0.4 µM, partner dose 0.01 µM)
cell count (COLO792): 98.1%
cell count (COLO800): 93%
cell count (COLO829): 98.2%
cell count (G361): 94.9%
cell count (IPC-298): 86.2%
cell count (IST-MEL1): 91.1%
cell count (LB2518-MEL): 88.3%
cell count (LOXIMVI): 107%
cell count (MEL-HO): 104%

C=CCNC1=C2C[C@@H](C)C[C@H](OC)[C@H](O)[C@@H](C)/C=C(\C)[C@H](OC(N)=O)[C@@H](OC)/C=C\C=C(/C)C(=O)NC(=CC1=O)C2=O [Tanespimycin] + O=c1cc(-c2cccc3c2Sc2ccccc2S3)oc(N2CCOCC2)c1 [KU55933] (first compound 0.002 µM, partner dose 1 µM)
cell count (COLO792): 105%
cell count (COLO800): 111%
cell count (COLO829): 99.2%
cell count (G361): 92.2%
cell count (IPC-298): 88.7%
cell count (IST-MEL1): 100%
cell count (LB2518-MEL): 120%
cell count (LOXIMVI): 133%
cell count (MEL-HO): 93.1%

CN1CCN(c2ccc3nc(-c4c(N)c5c(F)cccc5[nH]c4=O)[nH]c3c2)CC1 [Dovitinib] + C[C@@H]1CCN(C(=O)CC#N)C[C@@H]1N(C)c1ncnc2[nH]ccc12 [CP690550] (first compound 0.1 µM, partner dose 1 µM)
cell count (COLO792): 111%
cell count (COLO800): 146%
cell count (COLO829): 91.1%
cell count (G361): 107%
cell count (IPC-298): 97.3%
cell count (IST-MEL1): 99.1%
cell count (LB2518-MEL): 97.6%
cell count (LOXIMVI): 166%
cell count (MEL-HO): 106%

CNC(=O)c1cc(Oc2ccc(NC(=O)Nc3ccc(Cl)c(C(F)(F)F)c3)cc2)ccn1 [sorafenib] + OCCn1cc(-c2cnc3nnn(Cc4ccc5ncccc5c4)c3n2)cn1 [PF04217903] (first compound 0.4 µM, partner dose 1 µM)
cell count (COLO792): 115%
cell count (COLO800): 112%
cell count (COLO829): 97.4%
cell count (G361): 94.7%
cell count (IPC-298): 95.3%
cell count (IST-MEL1): 96.5%
cell count (LB2518-MEL): 113%
cell count (LOXIMVI): 76.3%
cell count (MEL-HO): 96.2%

CS(=O)(=O)CCNCc1ccc(-c2ccc3ncnc(Nc4ccc(OCc5cccc(F)c5)c(Cl)c4)c3c2)o1 [lapatinib] + Cc1cc([N+](=O)[O-])ccc1NS(=O)(=O)c1cc(Cl)ccc1Cl [FH535] (first compound 0.8 µM, partner dose 1 µM)
cell count (COLO792): 82.5%
cell count (COLO800): 120%
cell count (COLO829): 83%
cell count (G361): 103%
cell count (IPC-298): 89.8%
cell count (IST-MEL1): 93.7%
cell count (LB2518-MEL): 98.7%
cell count (LOXIMVI): 98.5%
cell count (MEL-HO): 82.3%

CN1CCN(c2ccc3nc(-c4c(N)c5c(F)cccc5[nH]c4=O)[nH]c3c2)CC1 [Dovitinib] + COC(=O)c1sccc1S(=O)(=O)Nc1ccc(Nc2ccccc2)cc1OC [GSK0660] (first compound 0.1 µM, partner dose 1 µM)
cell count (COLO792): 90.8%
cell count (COLO800): 95.8%
cell count (COLO829): 91.3%
cell count (G361): 88%
cell count (IPC-298): 105%
cell count (IST-MEL1): 101%
cell count (LB2518-MEL): 92.6%
cell count (LOXIMVI): 79%
cell count (MEL-HO): 100%

CS(=O)(=O)CCNCc1ccc(-c2ccc3ncnc(Nc4ccc(OCc5cccc(F)c5)c(Cl)c4)c3c2)o1 [lapatinib] + O=C(Nc1ccccc1)c1cc([N+](=O)[O-])ccc1Cl [GW9662] (first compound 0.8 µM, partner dose 2 µM)
cell count (COLO792): 72.3%
cell count (COLO800): 74.9%
cell count (COLO829): 96.6%
cell count (G361): 108%
cell count (IPC-298): 92%
cell count (IST-MEL1): 94.7%
cell count (LB2518-MEL): 108%
cell count (LOXIMVI): 65.1%
cell count (MEL-HO): 92.9%
